Source: the supplement of paper PMC11417369
± gives the standard deviation of the averaged measurements. The list shows a part of the results.

Test system: PfAP2-G AP2 domain (GST-tagged)
Experiment: gcPBM binding intensity (ln(normalized median fluorescence intensity)); higher = stronger DNA binding
Summary of the method: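 In this array assay, P. falciparum DNA-binding domains with a GST tag, expressed in E. coli, were applied for 1 h to primer-extended double-stranded 36-bp intergenic genomic probes and negative controls on an Agilent 4 × 180k array. Bound protein was visualised with Alexa488 anti-GST antibody at 488 nm. Binding intensity is the highest Masliner-normalised natural-log median intensity across replicate spots of either probe orientation.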

First: CCTTGTCTTTTTTTTTTTTTTTTTTCTTCTTATTTT [GTGCAC_negctrl_site523]
Second: ATATATTGAAAATATAGTACATAATAAATGTTCTTT [XGTACX_site8474]
The “gcPBM binding intensity (ln)” value of the first is lower: 10 ± 0.014 for the first, 11 ± 0.71 for the second.

“TTTTTTTTTTTTTTTTTTTTTTTTTTTTTTTGGGGG [CACACA_negctrl_site1570]” and “TGCATATACTCAAGCACACATATATATATATATATA [CACACA_site4733]” are within error of each other in “gcPBM binding intensity (ln)” value: 10.2 ± 0.12 for the first, 10.1 ± 0.33 for the second.

“ATATTAAACAAACACACACACATATATATATATATA [CACACA_site3383]” and “AATTAATGGTTAAAGGTGCACAATACATATATTACA [GTGCAC_site9943]” are within error of each other in “gcPBM binding intensity (ln)” value: 10.1 ± 0.32 for the first, 10.6 ± 0.47 for the second.

“TATATACATAAACACACACACACATATATATATATA [CACACA_site8707]” and “AATAAATTTAAACACACACACACATATATATATATA [CACACA_site4621]” are within error of each other in “gcPBM binding intensity (ln)” value: 10.4 ± 0.64 for the first, 10.2 ± 0.38 for the second.

Compared with “ATAATGTTCACATAGGTGCACTAATATAATTATCCA [GTGCAC_site9981]”, “CATAATAGTTATAAAATACACACCAGGCATGATAAA [CACACA_site329]” is lower in “gcPBM binding intensity (ln)” value: 10.5 ± 0.32 for the first, 9.845 ± 0.049 for the second.

Going from “AAAAAAAAAAAAAAAAGTACTCAATAATAATTACAT [XGTACX_site670]” to ATATACACCTGAGAGGTGCATATATATAAAATTTAC, the “gcPBM binding intensity (ln)” value falls from 11.5 ± 0.85 to 10 ± 0.32.

“TAGTATTTATATGATTAACACACATATGGGTATTAA [CACACA_site8363]” and “AATGTAGTTTATCGATGTACACAAAATAAAGAGAAG [XGTACX_site6956]” are within error of each other in “gcPBM binding intensity (ln)” value: 10.2 ± 0.45 for the first, 11.4 ± 0.81 for the second.

“CCGTACAATTTTGTCACACATAAAATACTTATGTAT [CACACA_site4871]” and “GTAATTTTTTTCTATACACACATATATATAATATAT [CACACA_site2655]” are within error of each other in “gcPBM binding intensity (ln)” value: 10.5 ± 0.25 for the first, 10.2 ± 0.15 for the second.

Going from “AATATAAATATAAATATAAATAAATAAATAAATAAA [CACACA_negctrl_site291]” to “CATTTATATAAAGAATGTACACACAGAAATGCACAC [XGTACX_site4718]”, the “gcPBM binding intensity (ln)” value rises from 9.465 ± 0.035 to 11.4 ± 0.85.

Compared with “ATAACTTTTATTTGTACACACATACATCTATATTAT [CACACA_site6595]”, “AGTAAAAGAAAGCACACACACATGTATTTATGTATG [CACACA_site5998]” is lower in “gcPBM binding intensity (ln)” value: 11.4 ± 0.77 for the first, 9.995 ± 0.049 for the second.

“AAAGTAAAAGGGTTTGGTACACATATAATATATTAG [XGTACX_site6036]” and “AAAACCTAGTGCATTTGTACATATTTCAATTTTAAA [XGTACX_site4582]” are within error of each other in “gcPBM binding intensity (ln)” value: 11.1 ± 0.46 for the first, 10.9 ± 0.5 for the second.

“TAAAAAATACAAGAGTGTACAAAATTTTTCTAAATG [XGTACX_site5334]” and “TATATGTATCCATTATGTACATAATAGTAATATAAT [XGTACX_site4008]” are within error of each other in “gcPBM binding intensity (ln)” value: 11 ± 0.5 for the first, 11.1 ± 0.66 for the second.

Going from “TATATTTATTTTCTGTGTACACATATGTTGTGTATT [XGTACX_site7640]” to “CTATATATTTTTTCTTAACACACATATATAAAATAA [CACACA_site9165]”, the “gcPBM binding intensity (ln)” value falls from 11.6 ± 1 to 10.1 ± 0.42.

Compared with “TATACGTGTTTTATTTGTACTTAAGCAGGTAAGCAT [XGTACX_site193]”, “ATTAAAAAAAAAAAAAAAAAAAAAAAAAAAAAAAAA [CACACA_negctrl_site1060]” is lower in “gcPBM binding intensity (ln)” value: 11 ± 0.57 for the first, 9.72 ± 0.17 for the second.

First: ATTGATAAATTAACTAGTACACATATAAATATATTA [XGTACX_site2325]
Second: TTATTTTTTAATTATATTCAAAATTAAAAAAAAAAA [XGTACX_negctrl_site226]
The “gcPBM binding intensity (ln)” value of the first is higher: 11.3 ± 0.93 for the first, 9.64 ± 0.29 for the second.

“AATATAAATGTGATTACACACAACAGATTTAAATGG [CACACA_site4802]” and “CACACGCACGAACACACACACATATAAATATAAATA [CACACA_site6299]” are within error of each other in “gcPBM binding intensity (ln)” value: 10.1 ± 0.13 for the first, 10.4 ± 0.5 for the second.

“ATATATTATTATACATGTACATATATAGATATATAT [XGTACX_site4358]” and “TCTTATAAAGGTAATTGTACATATTTATAATTTCTT [XGTACX_site4847]” are within error of each other in “gcPBM binding intensity (ln)” value: 11.1 ± 0.59 for the first, 11 ± 0.49 for the second.

“GTGAAAGGAAAAGTTGAACACACAAAGTAAACTATA [CACACA_site9178]” and “AATAATATTTAATACGCACACAATAATAATATAAAA [CACACA_site1763]” are within error of each other in “gcPBM binding intensity (ln)” value: 10.18 ± 0.014 for the first, 10.4 ± 0.32 for the second.

Going from “AAAAAAAAGAATAGCACACACACATATATAAATATA [CACACA_site630]” to TATAATGGTTCTGGTGTGCACCATGACAGAATCAAG, the “gcPBM binding intensity (ln)” value rises from 9.96 ± 0.15 to 10.6 ± 0.45.

Compared with “AACAATAATTTTGAATGTACATATAAATATTTTTAT [XGTACX_site5501]”, “ATATACATATAGGATGCACACATAATTCAAATACAA [CACACA_site8120]” is lower in “gcPBM binding intensity (ln)” value: 11.1 ± 0.59 for the first, 10.1 ± 0.22 for the second.

“CAAAATAAAAATAACACACACATTTATATAAATACA [CACACA_site4790]” and “ACAGTTAAAACAATAACACACAAAGAAAAAAAAAAA [CACACA_site737]” are within error of each other in “gcPBM binding intensity (ln)” value: 9.935 ± 0.035 for the first, 10.1 ± 0.28 for the second.

“TATAATATATTATATACACACATTATAAAATACCCA [CACACA_site4858]” and “GTTAATTCTATGAATTGTACTTAAATATAATTATAT [XGTACX_site2785]” are within error of each other in “gcPBM binding intensity (ln)” value: 10.12 ± 0.092 for the first, 11.1 ± 0.95 for the second.

For “ATAAATACTAAAAATGAAATATAGAAAATAGCAATA [CACACA_negctrl_site501]”, the “gcPBM binding intensity (ln)” value was 9.85 ± 0.014.
